About 200 (0.47%) of roughly 43,000 compounds were called active. Inconclusive results (about 12%) are left out. Calls follow the shape of the dose curve; as a rule, active = well fitted cell-killing curve with a large enough effect; inconclusive = small, poorly fitted or top-dose-only effect, or effect the other way; inactive = flat fitted curve, though single readings scatter. The list shows a part of the results.
experiment: Cell viability qHTS assay in S16 Pmp22-F2sN cells; details: S16 Pmp22-F2sN Schwann cells (luciferase reporters placed in the Pmp22 gene) viability, CellTiter-Glo, 24 h; series mostly up to 57.5 µM; activity change, negative = cytotoxicity: at the top concentration; also: nearly all actives have a fitted effect of over 65% in size
In short: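 S16 Schwann cells carrying the Pmp22-F2sN reporter, seeded in 1536-well format, were exposed to library compounds for 24 h at 37C. Viability was read as CellTiter-Glo luminescence after 15 min at room temperature.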
% is scaled to controls: 0 for no effect and ±100 for the full control effect.

Compound	activity change, negative = cytotoxicity
COc1ccc(S(=O)(=O)NCCc2csc3nc(-c4ccc(OC)c(OC)c4)nn23)cc1C	inactive: -2.68%
O=C1CCSc2ccc(S(=O)(=O)Nc3ccc(Cl)c(C(F)(F)F)c3)cc2N1	inactive: 1.5%
CC(C)c1ccc(NC(=O)c2ccc(F)c(S(=O)(=O)N3CCCCCC3)c2)cc1	inactive: -0.452%
Cc1noc(C)c1S(=O)(=O)N1CCC(C(=O)Nc2ccc(Br)cc2)CC1	inactive: 0.596%
COc1ccc(CNC(=O)c2nc(Cn3nc(C)c(Br)c3C)no2)cc1OC	inactive: -6.87%
COc1cc(NC(=O)c2sc3nc4n(c(=O)c3c2C)CCCCC4)cc(OC)c1OC	inactive: -14%
CCc1ccccc1NC(=O)c1ccc2c(c1)CCN2S(C)(=O)=O	inactive: -14.5%
CC(C)(C)c1ccc(C(=O)Nc2cc(-c3nc4ccccc4o3)ccc2Cl)cc1	inactive: 6.94%
CCCCn1c(=O)c2oc3ccccc3c2n(CC(=O)Nc2cccc(Cl)c2C)c1=O	inactive: 5.07%
CCc1ccccc1NC(=O)C1CCN(S(=O)(=O)c2ccc3[nH]c(=O)ccc3c2)CC1	inactive: 1.06%
COc1ccc(C)cc1NC(=O)NCc1cccn1Cc1ccccc1	inactive: -12.5%
COc1ccccc1NC(=O)CN(C)S(=O)(=O)c1ccc2c(c1)c(=O)n(C)c(=O)n2C	inactive: -16.9%
Cc1ccc(CN2CCC(CNC(=O)Nc3cccc(Cl)c3C)C2)cc1 (stereo unspecified)	inactive: -23.3%
Cc1ccc(CCNC(=O)NCc2noc3ccccc23)cc1	inactive: 3.05%
O=C(NCc1ccccc1)c1ccc2nc(CCc3ccccc3)oc2c1	inactive: 0.483%
CC1CCCN(S(=O)(=O)c2ccc3[nH]c(=O)cc(C(=O)NCCc4ccc(Cl)cc4)c3c2)C1 (stereo unspecified)	inactive: 3%
Cc1c(CNC2CCCCCC2)c(C(=O)O)c(C)n1Cc1ccc(F)cc1Cl	inactive: 1.68%
CCOCCCN(C(=O)Nc1ccc(Cl)cc1)C1CCN(C(C)=O)CC1	inactive: 10.4%
O=C(COc1ccc(Cl)cc1)Nc1nnc2n1CCS2	inactive: -2.8%
CCc1ccc(-n2c(=O)c3c4c(sc3n(Cc3ccc(C)cc3)c2=O)CCC4)cc1	inactive: 19%
Cc1cc(C)cc(N2CC(c3nc(-c4cccc(Cl)c4)no3)CC2=O)c1 (stereo unspecified)	inactive: 2.78%

Compound	activity change, negative = cytotoxicity
COc1ccc(CCNc2nccn(-c3ccc(C)c(C)c3)c2=O)cc1OC	inactive: -1.95%
CC(=O)N1CCc2cc(S(=O)(=O)NC(Cc3ccccc3)C(=O)Nc3cccc(C)c3)ccc21 (stereo unspecified)	inactive: -15%
Oc1c(C(c2ccc(F)cc2)N2CCOCC2)sc2nc(-c3ccco3)nn12 (stereo unspecified)	inactive: 5.35%
O=C1C(Nc2ccccc2)=CC(c2ccc(Br)cc2)N1c1ccccc1 (stereo unspecified)	inactive: 2.8%
COc1ccc(NC(=O)[C@H]2O[C@@H]3OC(C)(C)O[C@@H]3[C@H]3OC(C)(C)O[C@H]32)c(OC)c1	inactive: 11.8%
CCOC(=O)C1CCCN(c2nc3c(S(=O)(=O)c4ccc(CC)cc4)nnn3c3ccsc23)C1 (stereo unspecified)	inactive: 7.31%
Cc1ccc2c(c1)c1c(c(=O)n(-c3cccc(Cl)c3)c(=O)n1CC(=O)NCC1CCCO1)n2C (stereo unspecified)	inactive: -3.71%
CC(C)CCNC(=O)CN1C(=O)CSc2ccc(S(=O)(=O)N3CCC(C)CC3)cc21	inactive: 4.08%
CCc1cccc(NC(=O)CCc2nc3cccnc3n2Cc2ccc(OC)cc2)c1	inactive: 0.428%
CCOC(=O)Cc1ccc(NC(=O)Nc2c[nH]c(=O)[nH]c2=O)cc1	inactive: -1.57%
Cc1ccccc1OCC(=O)Nc1ccc(-c2nc3ccccc3o2)cc1	inactive: 28%
Cn1c(=O)[nH]c(=O)c2c1nc(N1CCOCC1)n2Cc1ccccc1	inactive: -23%
COc1ccc(NC(=O)Cn2nnc(C(=O)NCc3cccs3)c2N)cc1	inactive: 4.07%
Cc1ccc(NC(=O)CSc2nc(=O)n(Cc3cccnc3)c3c2CCC3)cc1F	inactive: 2.89%
Cc1ccc(-c2csc(-c3nc(-c4ccc(Br)s4)cs3)n2)cc1	inactive: -2.75%
CCc1cccc(C)c1NC(=O)c1cc(S(=O)(=O)N(Cc2ccc(C(=O)OC)cc2)Cc2ccc(OC)c(OC)c2)ccc1F	inactive: -0.112%
Cc1ccccc1Oc1nc2ccccn2c(=O)c1/C=C(\C#N)c1nc2ccccc2[nH]1	inactive: 4.61%
COc1ccc(NC(=O)CN2C(=O)CC(c3ccc(C)c(C)c3)=Nc3ccccc32)cc1OC	inactive: -29.5%
COc1ccc(Cc2nc3ccc(C(=O)NCc4ccccc4C)cc3o2)cc1	inactive: -5.13%
CCC(CC)C(=O)Nc1ccc2nc(SCC(=O)N3CCCC3)sc2c1	inactive: -12.4%
Cc1ccc(-n2nc(C(=O)Nc3ccc(F)cc3F)c3c4ccccc4n(C)c3c2=O)cc1	inactive: -16.1%

Compound	activity change, negative = cytotoxicity
Cc1ccc(C)c(NC(=O)CN(C)S(=O)(=O)c2cccc3nsnc23)c1	inactive: 3.23%
COc1ccccc1NC(=O)Cn1cc(S(=O)(=O)Cc2ccccc2)c2ccccc21	inactive: -11.4%
CC(C)(C)C1CCc2c(sc(NC(=O)c3cc4ccccc4c(=O)o3)c2C(N)=O)C1 (stereo unspecified)	inactive: 10.5%
Cc1ccc(C)c(NC(=O)Cn2c(=O)n(CCC(C)C)c(=O)c3cccnc32)c1	inactive: -7.19%
CC(=O)c1cccc(NC(=O)C2CCN(S(=O)(=O)c3ccc4c(c3)CCCN4C(C)=O)CC2)c1	inactive: -19.6%
Cc1ccc(-c2nc(C)c(CCNC(=O)c3cccs3)s2)cc1	inactive: -4.54%
Cc1ccc(CN2CCCn3nc(C(=O)NCCc4ccccc4C)cc3C2=O)cc1	inactive: -5.76%
COc1cc(C(=O)Nc2ccccc2-c2nc(-c3ccccc3)no2)cc(OC)c1OC	inactive: 0.162%
Cc1c(C(=O)OCc2ccccc2)[nH]c2c1C(=O)CC(c1ccc(C(C)(C)C)cc1)C2 (stereo unspecified)	inactive: 0.912%
COc1ccc(Cn2ccc3nc(C)c(C(=O)Nc4ccc(OC)cc4)cc3c2=O)cc1	inactive: 2.32%
COc1ccc(CNC(=O)C2CCN(S(=O)(=O)c3c(C)noc3/C=C/c3ccccc3F)CC2)cc1	inactive: 6.46%
Cc1cccc(C(=O)OCc2cc(=O)n3ccsc3n2)c1	inactive: 34.6%
CC(=O)Nc1nc2n(n1)C(c1ccc(F)cc1)C=C(c1ccc(Cl)cc1)N2 (stereo unspecified)	inactive: -1.6%
CC(C(=O)NCCSCc1cccc(Cl)c1)N(c1ccccc1)S(C)(=O)=O (stereo unspecified)	inactive: 25.3%
Cc1ccc(-n2c(C)cc(C(=O)C(=O)Nc3ccccc3)c2C)c(C)c1	inactive: 1.62%
CCOc1ccc(N2CC(NC(=O)c3ccco3)CC2=O)cc1 (stereo unspecified)	inactive: 1.39%
CC1CCCN(C(=O)c2cc3ccc4cccnc4c3[nH]2)C1 (stereo unspecified)	inactive: -11.6%
Cc1cccc(OCC(=O)Nc2cccc(OCc3cc(=O)n4cccc(C)c4n3)c2)c1	inactive: -9.33%
O=C(/C=C/c1ccccc1)Nc1cc(-c2nc3cc(Cl)ccc3o2)ccc1Cl	inactive: -1.03%

— PubChem BioAssay AID1508642 (National Center for Advancing Translational Sciences (NCATS), 2021)
